# Some of the results follow. These are further read-outs of the screen, such as a control signal, another cell line or another target. No call is given for them. Most of these compounds were active or inconclusive in the main read-out, so they are no random draw.
# Test: TAG lipid buildup reduction in H9c2 cells – cell-based, uHTS, fluorescence, primary screen (AID 651582)
# Settings: Nile Red lipid (TAG) fluorescence, measured here:, at 12.5 µM, cells loaded with 200 µM oleic acid
row,Structure (SMILES),"DAPI nuclei signal change (viability), lower = more cytotoxic [%]"
1,Cc1ccc2cc3cc(C(=O)NCCCN4CCCCCC4)oc3nc2c1,62.5
2,Fc1cccc(/C=N/Nc2cc(N3CCOCC3)ncn2)c1,-15.9
3,COc1cccc(/C=C/C(=C2\C(=O)N(c3ccccc3)N=C2C)c2ccc(Br)cc2)c1OC,6.95
4,Oc1c(C(Nc2nccs2)c2ccc(C(F)(F)F)cc2)ccc2cccnc12 (stereo not drawn),-10.3
5,Cn1nnnc1Sc1ncnc2scc(-c3ccc(-c4ccccc4)cc3)c12,-32.1
6,CN1Cc2c(N3CCOCC3)nc3sc(C(=O)c4ccc(Br)cc4)c(N)c3c2CC1(C)C,-8.73
7,CC1=CC(C)(C)Nc2ccc(OC(=O)CN3C(=O)c4ccccc4C3=O)cc21,-17.9
8,CCOc1ccc(S(=O)(=O)NCc2ccccn2)cc1NC(=O)c1ccccc1,-23.5
9,COc1cccc(NC(=O)N2CCc3nc(Nc4ccc(C(C)C)cc4)ncc3C2)c1,-4.87
10,Cc1ccc(NC(=O)c2cc3ccccc3o2)cc1S(=O)(=O)N(C)C,-24.7
11,COc1ccc(CNC(=O)Nc2nc(C(N)Cc3ccc(C(F)(F)F)cc3)cs2)cc1 (stereo not drawn),-40.8
12,Cc1ccc(Nc2nc(OC(C(F)(F)F)C(F)(F)F)nc(N3CCOCC3)n2)cc1,-44.3
13,O=C(N/N=C/c1cccc2cccnc12)c1ccccc1O,-18.6
14,COC(=O)C1=C(C)N(Cc2ccccc2)C(=NCC(C)C)N[C@H]1c1cccc(F)c1,-40.9
15,O=C1NC(Cc2ccc(O)cc2)c2nc3ccc(Cl)cc3c(=O)n2-c2cc3ccccc3cc21 (stereo not drawn),-28.1
16,CCOC(=O)c1cnn(-c2nc(-c3ccccc3)nc3c2COC(C)(C)C3)c1N,-16.5
17,CSc1nc(N(C)NC(=O)c2ccccc2)c2ccccc2n1,-35.5
18,c1ccc(/N=C2\N=C(Nc3ccccn3)c3ccccc32)nc1,-11.2
19,CC1CC2(C)Oc3ccccc3CC2C(C)C1CNCCCN(C)C (stereo not drawn),-44
20,Cc1ccc(NC(=O)Cn2nnc(-c3ccccc3NC(=O)c3cccs3)n2)cc1,-18.3
21,COc1ccc(-n2cc(CN3CCCC3)c(-c3cccc(F)c3)n2)cc1,-45.1
22,C=CCC[C@@H](Cc1ccc(F)cc1)C(=O)OC[C@@H](NC(=O)[C@@H](CC=C)CC(=O)N[C@H](CO)Cc1ccccc1)C(C)(C)C,-21.8
23,O=C(/C=C/c1ccc(OCCCF)cc1)NCc1ccc(Cl)c(Cl)c1,3.71
24,CC1CCN(S(=O)(=O)c2ccc3c(c2)C(=NO)c2cc(S(=O)(=O)N4CCC(C)CC4)ccc2-3)CC1,3.63

row,Structure (SMILES),"DAPI nuclei signal change (viability), lower = more cytotoxic [%]"
1,CCOC(=O)C(C(=O)OCC)C(C(=O)OCC)N1CCOCC1 (stereo not drawn),-45
2,CCNc1nc(SC(C)C(=O)Nc2ccccc2)nc(N(C)C)n1 (stereo not drawn),-12.9
3,CCC(=O)OCCNc1cc(Sc2nccn2C)c2nonc2c1[N+](=O)[O-],-37.7
4,Cc1onc(-c2ccc(Cl)cc2Cl)c1-c1csc(N/N=C/c2ccccc2)n1,-8.66
5,CC(C)(C)c1cc(CCC(=O)N2CCNCC2)c(C(C)(C)C)cc1O,-14
6,CCCC(=O)Nc1nc2ccc(NC(=O)c3ccccc3F)cc2s1,-18.4
7,O=C(Cc1n[nH]c(=O)c2ccccc12)OCC(=O)c1ccc2c(c1)OCCO2,-33.5
8,Cc1cccc(-c2ccc3[nH]c4c(c3c2)CCN2C[C@@H]([C@H](C)OC(=O)Nc3ccccc3C)[C@@H](N(C)C(=O)Nc3ccccc3C)C[C@@H]42)c1,-8.78
9,Cn1c(N=Nc2ccc(N3CCOCC3)cc2)[n+](C)c2ccccc21,-8.51
10,CCCCCOc1ccc(NC(=O)CSc2cccc3cccnc23)cc1,-33.2
11,Cc1cccc(Nc2nc(N)nc(CCl)n2)c1C,-36.4
12,Nc1c(C(=O)NCc2ccccc2)sc2nc(N3CCOCC3)c3c(c12)CCCC3,37.2
13,CCOc1ccc2nc(NC(=O)c3ccccn3)sc2c1,-27.2
14,CC(=NNc1nc2ccccc2o1)c1ncccn1,-37.9
15,Cc1ccccc1N=Nc1ccc(O)c2ncccc12,-41.4
16,CCOc1ccccc1N1CCN(S(=O)(=O)c2ccc3c4c(cccc24)C(=O)N3)CC1,-21.4
17,COc1ccccc1NS(=O)(=O)c1cc(NC(=O)/C=C/c2cccs2)ccc1N1CCOCC1,-42.8
18,Cc1ccc2nc(N(CCCN(C)C)C(=O)c3cc(-c4cccs4)nc4ccccc34)sc2c1,8.1
19,COc1ccc2nc(-c3ccccn3)[nH]c2c1,-47.9
20,Cc1ccc(-n2c(=O)[nH]c3cc(C(=O)NC4CCN(Cc5ccccc5)CC4)ccc3c2=O)cc1,-19.5
21,CCOc1ccc(C(=O)NC(=S)Nc2cccc(S(=O)(=O)NC3=NCCC3)c2)cc1,-24.3
22,O=C(C[C@H]1C[C@H](C(=O)N2CCOCC2)[C@@]2(CCC3CCCC3)c3[nH]c4ccc(Cl)cc4c3CCN2C1=O)NCC12CC3CC(CC(C3)C1)C2,-19.3
23,Cc1[nH]c2ccccc2c1/C=N/Nc1ccccc1[N+](=O)[O-],-1.97
24,CCCC1=Nc2cc(C(=O)NCCCOCC)ccc2Sc2ccccc21,-39

row,Structure (SMILES),"DAPI nuclei signal change (viability), lower = more cytotoxic [%]"
1,O=C1C=C(NCCc2cc(Br)c(O)c(Br)c2)C(=O)c2ncccc21,-29.8
2,CC(C)C[C@H]1CNC(=S)N1CC1CCCN1C[C@H](CC(C)C)N1C[C@H](CC(C)C)N(CCc2ccccc2)C1=S (stereo partly drawn),-6.43
3,N=c1n(CCO)c2ccccc2n1CCOc1ccc(Cl)cc1Cl,-33.4
4,COc1ccc2nc(SCC(=O)N3CC(=O)Nc4ccccc43)c(C#N)cc2c1,-16.4
5,CCOC(=O)c1ccc(NC2=CC(=O)C(=O)c3ccccc32)cc1,-25.6
6,Cc1ccc2nc(-c3ccc(NC(=S)NC4CC(C)(C)NC(C)(C)C4)cc3)sc2c1,63.8
7,Nc1c(Cl)cc(-c2csc(N3CCCC3c3nc4cc(Cl)c(N5CCCCC5)cc4n3CCCO)n2)cc1Cl (stereo not drawn),-13.2
8,CCOc1ccc(C(=O)Nc2nnc(NC(=S)Nc3ccccc3)s2)cc1,-1.26
9,COc1ccc2cc1Oc1ccc(cc1)C[C@H]1c3c(cc(OC)c4c3Oc3c(ccc5c3[C@H](C2)N(C)CC5)O4)CCN1C,-39.8
10,COc1cc(-c2noc(C)c2C#Cc2ccc(N)cc2)cc(OC)c1OC,-32.4
11,O=[N+]([O-])c1ccc(Nc2nc(N3CCOCC3)nc(N3CCOCC3)n2)cc1,-21.5
12,CCC(=O)NC(Nc1sc2c(c1C(=O)OC)CCCC2)(C(F)(F)F)C(F)(F)F,9.01
13,Cc1cccc(NC(=O)c2ccc([N+](=O)[O-])o2)c1C,-46.5
14,O=C(Nc1ccccc1N1CCCCC1)c1ncoc1-c1ccc(F)cc1,-15.2
15,CCCCC(=O)NC(c1cccc([N+](=O)[O-])c1)c1ccc2cccnc2c1O (stereo not drawn),-47.2
16,CCOC(=O)[C@H]1[C@H]2COc3ccc(Br)cc3[C@@H]2N2C(=O)c3cc(Br)ccc3NC(=O)[C@@]12C,-20.3
17,CN(C)CCCn1c(=O)n(C2CCCCC2)c(=O)c2c3c(sc21)CCCCC3,-28.5
18,CCCCCCCCn1c(N2CCN(c3cccc(Cl)c3)CC2)nc2c1c(=O)[nH]c(=O)n2C,11.5
19,CC1=NN(c2ccccc2)C(=O)/C1=C/C=C/c1ccc(N(C)C)cc1,-2.55
20,N#Cc1ccc(C23CC4(C2)[C@H](CN(P(=O)(c2ccccc2)c2ccccc2)[C@@H]4c2ccccc2)C3c2ccc(Cl)nc2)cc1 (stereo partly drawn),-23.4
21,C=CCC[C@@H](Cc1ccc(F)cc1)C(=O)OC[C@@H](Cc1c[nH]c2ccccc12)NC(=O)[C@@H](CC=C)CC(=O)N(CCO)Cc1ccccc1,6.46
22,C/C(N=Nc1nc2ccccc2s1)=N\Nc1ccccc1O,-9.99
23,CCOc1ccc2nc(NC(=O)CN3CCC(n4nnc5cc(F)ccc54)CC3)sc2c1,-3.02
24,Cc1ccc(NC(=O)c2nc[nH]c2C(=O)NCCCCCCNC(=O)c2[nH]cnc2C(=O)Nc2ccc(C)cc2)cc1,0.438

row,Structure (SMILES),"DAPI nuclei signal change (viability), lower = more cytotoxic [%]"
1,Cc1ccc(Cc2nnc(SCC(=O)Nc3ccccc3)n(N)c2=O)cc1,3.19
2,CCCCCc1cc(=O)oc2c(C(CCN3CCCC3)c3ccc(N(C)C)cc3)c(OC)cc(OC)c12 (stereo not drawn),-32.9
3,CCOc1ccc(NC(=O)CN(C)C(=O)c2cc(-c3ccc(OC)cc3)nc3ccccc23)cc1OCC,15.2
4,O=C(Nc1nc(-c2ccccn2)cs1)c1cccc(-n2cnnn2)c1,-44.5
5,O=C(Nc1cccc(S(=O)(=O)N2CCCCC2)c1)c1ccc([N+](=O)[O-])o1,-46.4
6,CN(C)c1ccc(NC(=O)Nc2nc(C(N)C3CCCCC3)cs2)cc1 (stereo not drawn),-26.1
7,CCCSc1nc(SCC(=O)NCc2ccccc2)c2c3c(sc2n1)COC(C)(C)C3,3.63
8,COc1ccc(-c2csc(NC(=S)NC(=O)/C=C/c3ccco3)n2)cc1Br,-32.3
9,COc1ccc(CC(N)c2csc(NC(=O)NCc3ccccc3)n2)cc1 (stereo not drawn),-31.1
10,CCOC(=O)c1c(NC(=O)C2c3ccccc3Oc3ccccc32)sc(C(=O)N(CC)CC)c1C,-17.5
11,COc1ccc(CNC(=O)C2CCN(c3nc(-c4ccccc4)nc4c3CCC4)CC2)cc1,-3.52
12,NC(=O)c1cccc(-c2ccnc3c2CC(C(=O)NCc2ccccc2)O3)c1 (stereo not drawn),-29.1
13,FC(F)Oc1ccc(-c2csc(NNC3=NCCCCC3)n2)cc1,-9.49
14,Cc1ccc(Cn2c(C(C)Nc3nc(-c4ccc(Cl)c([N+](=O)[O-])c4)cs3)nc3cc(C(F)(F)F)ccc32)cc1 (stereo not drawn),-25.9
15,CN1CCN(C2=C(Cl)C(=O)c3ccccc3C2=O)CC1,-12.2
16,C[C@@]12C(=O)Nc3cc(Cl)ccc3C(=O)N1[C@H]1c3cc(Br)ccc3OC[C@@H]1[C@@H]2c1ccccc1,-38
17,CCOc1cc2nc(-c3ccc(OC)c(OC)c3)nc(NCCCN3CCOCC3)c2cc1OC,19.1
18,N#CCC(=O)N/N=C/c1cn(Cc2ccc(Cl)c(Cl)c2)c2ccccc12,-49
19,CCN(CC)C(=O)[C@H]1C[C@H](CC(=O)NCCCn2ccnc2)C(=O)N2CCc3c([nH]c4cc(CCC(=O)N(C)C)ccc34)[C@]12C,-42.9
20,CN(Cc1ccc(Cl)s1)C(=O)CCl,-20.5
21,Cc1ccc(CNC(=O)c2ccc(N3CCC4(CC3)CC(c3ccccc3)=NO4)c(NC(=O)c3ccc(Cl)c([N+](=O)[O-])c3)c2)cc1,-10.4

# Reference: PubChem BioAssay AID651582 (Sanford-Burnham Center for Chemical Genomics, 2012)
